{"source": "the supplement of paper PMC3334620", "note": "In all, about 33,000 sequences were measured (“E-score (-0.5 to 0.5)”: median about -0.041, highest 2% from about 0.37 on). The list shows a part of the results.", "data": [{"molecular_target": "T1, Ecm22 (UniProt Q05958)", "T1 sequence": "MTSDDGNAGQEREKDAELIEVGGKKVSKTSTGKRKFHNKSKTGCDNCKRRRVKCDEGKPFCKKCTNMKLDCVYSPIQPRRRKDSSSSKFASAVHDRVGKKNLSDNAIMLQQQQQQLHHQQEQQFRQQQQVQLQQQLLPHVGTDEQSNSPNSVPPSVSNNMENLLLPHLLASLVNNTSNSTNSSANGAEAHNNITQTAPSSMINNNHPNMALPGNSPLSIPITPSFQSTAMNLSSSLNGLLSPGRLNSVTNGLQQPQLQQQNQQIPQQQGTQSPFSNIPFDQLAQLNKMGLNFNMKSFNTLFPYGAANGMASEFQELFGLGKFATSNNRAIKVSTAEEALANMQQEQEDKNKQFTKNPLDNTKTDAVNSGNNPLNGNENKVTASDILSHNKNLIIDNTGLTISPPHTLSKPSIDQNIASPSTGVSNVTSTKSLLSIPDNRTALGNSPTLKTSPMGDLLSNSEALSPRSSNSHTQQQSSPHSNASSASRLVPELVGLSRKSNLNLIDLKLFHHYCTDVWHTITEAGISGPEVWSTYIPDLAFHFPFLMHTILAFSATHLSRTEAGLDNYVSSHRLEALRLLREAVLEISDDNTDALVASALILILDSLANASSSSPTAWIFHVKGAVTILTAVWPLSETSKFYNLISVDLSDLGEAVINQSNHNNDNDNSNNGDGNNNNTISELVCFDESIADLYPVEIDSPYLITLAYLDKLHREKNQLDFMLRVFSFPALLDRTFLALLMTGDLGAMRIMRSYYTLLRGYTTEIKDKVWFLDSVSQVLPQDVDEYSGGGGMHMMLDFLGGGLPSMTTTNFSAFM", "test": "PBM E-score (8-mer binding enrichment) (E-score (-0.5 to 0.5)); higher = stronger / more preferred TF binding; most listed sequences are background and not binding sites", "details": "protein concentration: 200 nM; construct: GST-full length", "protocol": "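Universal 'all 10-mer' protein binding microarrays (Agilent AMADID 015681) probed with GST-tagged S. cerevisiae TFs (full-length or DBD) made by in vitro transcription/translation (PURExpress), about 100-200 nM. Bound TF was detected with fluorescent anti-GST. Each ungapped 8-mer (which stands for itself and its reverse complement) is scored by the PBM enrichment score (E-score), a modified Wilcoxon-Mann-Whitney statistic from -0.5 to +0.5, computed with the Universal PBM Analysis Suite. Scale: above 0.35 generally sequence-specific binding.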", "values": [{"sequence": "ATATATTG", "PBM E-score": -0.052}, {"sequence": "GAGCTGAA", "PBM E-score": -0.0378}, {"sequence": "AGAGTGCA", "PBM E-score": -0.0302}, {"sequence": "GAGTGTCA", "PBM E-score": -0.0588}, {"sequence": "TAGACGAA", "PBM E-score": 0.126}, {"sequence": "AAGAACCC", "PBM E-score": -0.0304}, {"sequence": "CCCAATAC", "PBM E-score": -0.102}, {"sequence": "ACCATAAA", "PBM E-score": 0.0734}, {"sequence": "GGAGTGTA", "PBM E-score": 0.0868}, {"sequence": "ATTTACCC", "PBM E-score": -0.0622}, {"sequence": "AACTTGTA", "PBM E-score": -0.0505}, {"sequence": "CCCAAGCG", "PBM E-score": -0.021}, {"sequence": "GCCCACCA", "PBM E-score": -0.184}, {"sequence": "ATTAACAC", "PBM E-score": 0.0461}, {"sequence": "CTTTGGTA", "PBM E-score": -0.352}, {"sequence": "AGGAACGG", "PBM E-score": 0.459}, {"sequence": "CATAACAG", "PBM E-score": -0.177}, {"sequence": "CTTAAAGA", "PBM E-score": -0.0454}, {"sequence": "GTCCACGA", "PBM E-score": -0.19}, {"sequence": "AGCTAATC", "PBM E-score": -0.00043}, {"sequence": "TAGCCAGA", "PBM E-score": -0.0155}, {"sequence": "GGAGCTAC", "PBM E-score": -0.0188}, {"sequence": "ACGCTCGC", "PBM E-score": 0.27}, {"sequence": "AGAGTCTG", "PBM E-score": -0.113}, {"sequence": "TGTTACAA", "PBM E-score": 0.0528}, {"sequence": "GAGATCTA", "PBM E-score": -0.0319}, {"sequence": "CATATGAA", "PBM E-score": -0.13}, {"sequence": "GTACTCGA", "PBM E-score": 0.14}, {"sequence": "AATTGTAA", "PBM E-score": -0.0176}, {"sequence": "AGCCCAGC", "PBM E-score": 0.091}, {"sequence": "ACAGGGAA", "PBM E-score": -0.0824}, {"sequence": "AACAGTGA", "PBM E-score": -0.127}, {"sequence": "GTACAGTA", "PBM E-score": 0.194}, {"sequence": "CCCCCGCA", "PBM E-score": -0.115}, {"sequence": "AGTCACAG", "PBM E-score": 0.0191}, {"sequence": "TTACGCAA", "PBM E-score": 0.115}, {"sequence": "CAGAAAGG", "PBM E-score": -0.15}, {"sequence": "CTGTGTTC", "PBM E-score": 0.0288}, {"sequence": "AACGCATA", "PBM E-score": 0.227}, {"sequence": "ACCGACGG", "PBM E-score": 0.196}, {"sequence": "CGATGGCA", "PBM E-score": 0.0908}, {"sequence": "CGCAATAG", "PBM E-score": 0.116}, {"sequence": "TCCGAAGA", "PBM E-score": 0.0982}, {"sequence": "CAATACCC", "PBM E-score": -0.109}, {"sequence": "CAGGGAAG", "PBM E-score": -0.271}, {"sequence": "CGGAGAAC", "PBM E-score": -0.00238}, {"sequence": "TACGCTCA", "PBM E-score": 0.0718}, {"sequence": "GCGTCCAA", "PBM E-score": -0.187}, {"sequence": "GTGATAAA", "PBM E-score": -0.031}, {"sequence": "TAGCACAA", "PBM E-score": -0.192}, {"sequence": "TGGCGAAA", "PBM E-score": 0.117}, {"sequence": "CTTCAATA", "PBM E-score": -0.0277}, {"sequence": "ACCTCTCC", "PBM E-score": -0.163}, {"sequence": "CTTAATAC", "PBM E-score": 0.0719}, {"sequence": "CGTCTCAG", "PBM E-score": -0.109}, {"sequence": "AAAGATCG", "PBM E-score": 0.158}, {"sequence": "GAAGGGAA", "PBM E-score": -0.24}, {"sequence": "AACTCGAG", "PBM E-score": -0.0633}, {"sequence": "GAATTTGA", "PBM E-score": -0.0637}, {"sequence": "GAGAATCC", "PBM E-score": 0.0471}, {"sequence": "TAAGACTA", "PBM E-score": -0.203}, {"sequence": "CAGATTAC", "PBM E-score": -0.154}, {"sequence": "ACGATGTA", "PBM E-score": 0.314}, {"sequence": "CAGGGTCC", "PBM E-score": -0.151}, {"sequence": "CGATGATA", "PBM E-score": 0.126}, {"sequence": "CGAGCGTA", "PBM E-score": 0.259}, {"sequence": "CATAGCTC", "PBM E-score": -0.132}, {"sequence": "ACAGTGGA", "PBM E-score": -0.0755}, {"sequence": "AGAGGTTG", "PBM E-score": -0.18}, {"sequence": "GTACCATA", "PBM E-score": 0.17}, {"sequence": "AAATAGAC", "PBM E-score": -0.0415}, {"sequence": "CGTACGTC", "PBM E-score": 0.356}, {"sequence": "AGTTCGCG", "PBM E-score": 0.185}, {"sequence": "ATAAAGCG", "PBM E-score": 0.163}, {"sequence": "CAGGGTGC", "PBM E-score": -0.26}, {"sequence": "AAGCAACA", "PBM E-score": -0.135}, {"sequence": "GATGAGAA", "PBM E-score": -0.0713}, {"sequence": "CCGTCCGC", "PBM E-score": -0.141}, {"sequence": "AACAGAGG", "PBM E-score": -0.258}, {"sequence": "ACTCACAC", "PBM E-score": -0.112}, {"sequence": "GTCCAAAC", "PBM E-score": -0.0124}, {"sequence": "GACGTCCA", "PBM E-score": -0.161}, {"sequence": "TATGTTGA", "PBM E-score": -0.102}, {"sequence": "CCAGGACA", "PBM E-score": -0.252}, {"sequence": "GATGGTCC", "PBM E-score": -0.0975}, {"sequence": "ACGCAATA", "PBM E-score": 0.173}]}]}
